Some of the results follow. The data describe in vitro nicking of single-stranded DNA by Rep domains for 1 h at 37 °C with 3 µM enzyme; only the middle of the 90-letter strands is printed. Numbers give uncut DNA relative to the enzyme-free pool, as log2; strong cutting gives strongly negative numbers. There is no active / inactive call. Because reads are shares of a total, they shift together, so uncut sequences can rise above 0 when many others are cut.
Experiments:
Experiment in all cases: uncleaved DNA left, log2 of reads against the no-enzyme library (log2 ratio); higher = less cleavage (more negative = more Rep cleavage of the k-mer); sequences stand for … in CTCGTCCG…ACCGGAGA
[1] = test system: T1, Rep nickase domain of Muscovy duck circovirus
T1 sequence (protein, residues 1-111, tag omitted): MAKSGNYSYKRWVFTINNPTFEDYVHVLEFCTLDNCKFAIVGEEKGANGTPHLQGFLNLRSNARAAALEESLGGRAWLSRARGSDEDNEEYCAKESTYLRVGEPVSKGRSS
Protocol: (§1)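 A pool of 90-nt single-stranded DNAs with seven random bases just before the constant AC of the nick site (name = the seven bases) was cut by 3 µM recombinant His6-SUMO-tagged Rep nickase domain (300 nM DNA, 50 mM HEPES pH 8.0, 50 mM NaCl, 1 mM MnCl2, 1 h, 37 °C, three replicates). Uncut DNA was amplified and sequenced.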

[2] = test system: T2, Rep nickase domain of banana bunchy top virus
T2 sequence (protein, residues 1-94, tag omitted): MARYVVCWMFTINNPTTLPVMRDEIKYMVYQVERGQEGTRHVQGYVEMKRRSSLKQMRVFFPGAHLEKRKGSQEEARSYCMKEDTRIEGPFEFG
Protocol: as §1

[3] = test system: T3, Rep nickase domain of cabbage leaf curl virus
T3 sequence (protein, residues 1-116, tag omitted): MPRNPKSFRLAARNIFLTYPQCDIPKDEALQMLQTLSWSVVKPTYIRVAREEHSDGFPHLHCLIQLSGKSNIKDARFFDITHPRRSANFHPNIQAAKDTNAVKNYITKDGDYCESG
Protocol: as §1

[4] = test system: T4, Rep nickase domain of chickpea chlorotic dwarf virus
T4 sequence (protein, residues 1-124, tag omitted): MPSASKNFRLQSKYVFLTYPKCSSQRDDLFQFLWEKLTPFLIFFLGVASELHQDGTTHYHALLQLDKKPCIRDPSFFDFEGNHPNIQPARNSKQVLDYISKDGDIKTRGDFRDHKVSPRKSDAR
Protocol: as §1

[5] = test system: T5, Rep nickase domain of faba bean necrotic yellows virus
T5 sequence (protein, residues 1-98, tag omitted): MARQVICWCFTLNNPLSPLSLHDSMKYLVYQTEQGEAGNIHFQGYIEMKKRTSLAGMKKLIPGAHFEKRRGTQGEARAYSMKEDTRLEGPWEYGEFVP
Protocol: as §1

[6] = test system: T6, Rep nickase domain of maize striate mosaic virus
T6 sequence (protein, residues 1-117, tag omitted): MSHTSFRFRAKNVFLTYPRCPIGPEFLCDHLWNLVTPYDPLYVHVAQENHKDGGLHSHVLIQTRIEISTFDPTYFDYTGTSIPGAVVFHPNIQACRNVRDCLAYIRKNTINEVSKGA
Protocol: as §1

[7] = test system: T7, Rep nickase domain of porcine circovirus 2
T7 sequence (protein, residues 2-116, tag omitted): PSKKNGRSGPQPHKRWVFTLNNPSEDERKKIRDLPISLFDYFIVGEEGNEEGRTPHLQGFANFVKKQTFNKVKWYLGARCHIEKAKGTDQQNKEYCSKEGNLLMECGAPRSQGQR
Protocol: as §1

[8] = test system: T8, Rep nickase domain of tomato golden mosaic virus
T8 sequence (protein, residues 1-124, tag omitted): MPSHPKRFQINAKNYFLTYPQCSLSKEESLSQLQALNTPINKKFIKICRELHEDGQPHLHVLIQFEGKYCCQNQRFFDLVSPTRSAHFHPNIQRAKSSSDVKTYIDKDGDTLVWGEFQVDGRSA
Protocol: as §1

[9] = test system: T9, Rep nickase domain of tomato yellow leaf curl virus
T9 sequence (protein, residues 1-136, tag omitted): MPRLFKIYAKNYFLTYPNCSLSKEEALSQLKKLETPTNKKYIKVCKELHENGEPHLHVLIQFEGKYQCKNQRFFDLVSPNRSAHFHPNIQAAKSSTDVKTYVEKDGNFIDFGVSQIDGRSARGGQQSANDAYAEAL
Protocol: as §1

[10] = test system: T10, Rep nickase domain of wheat dwarf virus
T10 sequence (protein, residues 1-137, tag omitted): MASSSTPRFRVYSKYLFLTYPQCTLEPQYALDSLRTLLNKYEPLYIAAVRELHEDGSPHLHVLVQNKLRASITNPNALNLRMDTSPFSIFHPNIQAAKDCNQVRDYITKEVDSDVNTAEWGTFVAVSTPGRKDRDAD
Protocol: as §1

Sequence	uncleaved DNA left (log2) [1]	uncleaved DNA left (log2) [2]	uncleaved DNA left (log2) [3]	uncleaved DNA left (log2) [4]	uncleaved DNA left (log2) [5]	uncleaved DNA left (log2) [6]	uncleaved DNA left (log2) [7]	uncleaved DNA left (log2) [8]	uncleaved DNA left (log2) [9]	uncleaved DNA left (log2) [10]
TAACGCA	-0.016	-0.0538	-1.04	-2.4	-0.101	-0.773	-0.0827	-0.104	0.00927	-0.273
GCCCGGA	-0.026	-0.0395	0.244	0.647	-0.0149	0.518	0.0242	-0.0324	0.0315	-0.126
AAGATTA	0.156	0.0512	0.000739	-1.08	0.319	0.157	-0.978	0.133	0.151	0.148
AACGTCT	-0.0189	-0.0271	-0.351	-2.52	-0.0611	-0.374	-0.433	-0.0639	-0.0106	-0.152
AGCCGCT	0.14	0.113	-0.161	-0.365	-0.00858	-0.133	-0.0902	0.0751	0.0778	-0.0307
CTTCTCG	0.0254	-0.00266	-0.91	-0.325	0.027	-0.885	0.2	-0.0338	0.0755	-0.083
ACTGAAG	0.0873	0.158	-0.846	-0.303	-0.0316	-1.17	0.14	0.0914	0.146	-0.0117
GAACCGT	0.0176	0.0306	0.0287	-0.609	-0.0137	-0.144	-0.118	-0.106	-0.0362	-0.0663
GTGCAAG	0.0397	0.0366	-0.36	-0.202	-0.00105	-0.736	0.178	-0.00274	0.062	-0.00423
ACCTGGT	-0.161	0.0294	-0.314	-0.159	0.13	-0.402	-1.12	0.249	0.0767	0.0183
TTACGCG	0.0236	-0.0346	-1.09	-0.274	0.0648	-0.688	-0.00771	-0.045	-0.0575	-0.117
ATTCGAT	0.101	0.0639	0.177	0.677	0.0927	0.665	-0.064	0.121	-0.00276	0.0712
CCTATCA	-0.0237	-0.0394	0.418	0.231	-0.0248	0.372	-0.0764	-0.169	0.0517	0.165
GTTAACT	0.0702	0.0797	0.248	0.36	0.0516	1.66	-0.0764	0.127	0.0894	0.173
GCACCAC	0.061	0.0912	-0.0256	0.106	0.0626	0.00711	0.00491	0.0424	0.0736	0.106
AGGTAAC	0.168	0.0498	0.145	-0.104	0.111	0.425	0.185	0.159	0.154	0.101
AAAGGTA	0.147	0.162	0.241	1.15	0.0841	1.45	0.223	0.2	-0.0149	0.106
CCTTTCT	-1.22	-0.00659	-0.251	-2.53	-0.026	-0.933	-2.7	-0.107	0.0183	0.0416
GGCATGG	0.00135	0.0968	0.24	0.8	-0.0587	0.91	0.157	0.121	0.0671	0.0152
CGTGAGT	0.115	0.0619	-0.054	-0.517	0.0795	-0.707	-0.059	0.162	0.077	0.0626

Sequence	uncleaved DNA left (log2) [1]	uncleaved DNA left (log2) [2]	uncleaved DNA left (log2) [3]	uncleaved DNA left (log2) [4]	uncleaved DNA left (log2) [5]	uncleaved DNA left (log2) [6]	uncleaved DNA left (log2) [7]	uncleaved DNA left (log2) [8]	uncleaved DNA left (log2) [9]	uncleaved DNA left (log2) [10]
ATGCAAG	0.0939	0.0537	-0.681	-0.251	0.0818	-1.11	0.0901	0.112	0.0899	0.0216
TTCTCTC	-0.0991	-0.135	0.106	0.0242	0.0445	-0.0745	-0.146	-0.0555	-0.0825	-0.113
TAATTCA	-1.67	0.139	-3.14	-3	0.0441	-2.78	-2.12	-3.36	-0.00657	-3.31
ATCGGCC	-0.00716	0.033	-0.0565	0.0871	0.0179	-0.481	0.147	0.0115	0.0912	0.0757
ATGGTAC	-0.0469	0.0382	-0.0218	0.237	0.017	-0.225	0.0162	0.0197	0.0109	0.0263
TACAATG	0.126	-0.0463	-0.44	-0.71	0.058	-0.923	0.202	0.129	-0.0368	0.133
GTCAACC	0.0377	0.0861	0.293	0.534	-0.0665	1.45	-0.049	-0.039	0.0254	0.0628
ACCCGCC	-0.0782	-0.106	-0.219	-0.2	-0.0318	-0.722	0.0816	-0.0403	-0.132	-0.151
CGAAATA	0.0426	-0.0444	-0.277	-1.08	0.0753	-0.549	-0.0707	-0.06	0.106	0.0782
TATCGTA	-0.0978	0.0575	-0.0619	-1.65	-0.0149	-0.833	-0.167	0.0567	0.00475	-0.0841
AGGGTTC	-0.00835	-0.129	0.0229	0.413	-0.229	0.734	-0.0917	-0.0675	-0.0328	-0.0702
TGGGAAG	0.201	0.0877	0.296	0.771	0.179	0.332	0.196	0.13	0.000104	0.0965
CCGAATG	-0.019	-0.153	0.0568	0.48	-0.0385	1.25	0.087	0.0296	0.00255	0.00513
CTCTTTA	-0.126	-0.171	-0.202	-1.68	-0.0524	-0.973	-0.124	-0.161	-0.175	-0.0321
TCGAAGT	-0.172	-0.122	0.071	-0.237	0.0449	-0.588	-0.109	-0.078	-0.137	-0.0613
CATAACT	-0.0764	-0.899	-0.692	-2.86	0.075	-1.21	-1.94	-0.117	-0.00308	-0.0484
GCTTCTT	-0.999	-0.0485	0.0979	-1.01	-0.0458	0.4	-2.43	-0.0447	0.094	0.104
AATTCCT	-3.67	-3.31	-0.647	-3.06	-0.0153	-0.563	-4.04	-0.191	-0.0911	-0.147
GAAAAGG	0.0819	0.0996	0.424	1.04	0.0218	0.817	0.243	0.128	0.0992	0.114
TGCAATA	0.0224	-0.00858	-0.091	-0.91	0.0953	-0.489	-0.175	0.0442	0.0404	-0.0377

Sequence	uncleaved DNA left (log2) [1]	uncleaved DNA left (log2) [2]	uncleaved DNA left (log2) [3]	uncleaved DNA left (log2) [4]	uncleaved DNA left (log2) [5]	uncleaved DNA left (log2) [6]	uncleaved DNA left (log2) [7]	uncleaved DNA left (log2) [8]	uncleaved DNA left (log2) [9]	uncleaved DNA left (log2) [10]
GCCGTAA	-0.0855	-0.0814	0.0331	0.303	-0.138	-0.116	-0.0866	-0.0697	-0.105	-0.149
CGACCTC	-0.0222	-0.0389	0.0985	0.555	-0.0513	0.997	0.0814	-0.012	-0.0809	0.0568
AAGTCGT	0.000661	-0.109	-0.4	-0.717	-0.0774	-0.748	-3.42	0.0435	-0.0957	-0.104
AAGAGGA	0.0902	-0.027	0.222	0.746	0.0806	0.346	0.0278	0.145	-0.0283	-0.029
CCCGGTT	0.183	0.0651	0.025	-0.288	0.0679	0.724	0.0491	-0.12	-0.044	-0.00849
CAGCGGT	-0.129	-0.231	-0.143	0.232	-0.123	0.0722	-0.493	-0.113	-0.228	-0.243
AGTATCG	-0.0573	-0.106	-0.848	-0.699	0.02	-1.29	0.0781	-0.101	-0.095	-0.124
GCTGGTC	-0.017	0.0722	0.193	0.627	0.0857	0.893	-0.0168	0.0251	0.193	-0.0159
GGGGAGT	0.0212	0.0656	0.815	2.01	0.0305	2.33	0.17	0.0707	0.0522	0.254
GAGCCTA	0.0313	0.147	0.238	-0.136	0.0749	1.1	-0.273	0.0417	0.134	0.146
CTGACAG	-0.0812	0.0326	-0.187	-0.0556	0.0238	-0.57	0.0452	0.0461	0.0152	-0.0324
CGACACG	0.175	0.097	-0.173	-0.105	0.0539	-0.58	0.116	-0.000739	0.0626	0.0597
CTAAGAT	0.11	0.0305	-1.67	-2.22	0.116	0.668	0.209	-0.0373	0.0237	-0.108
AGCTGAG	0.117	0.0885	-0.419	-0.0738	0.11	-0.959	0.41	0.124	0.176	0.076
GTTTCGA	0.109	0.188	0.334	0.828	0.045	1.35	0.133	0.125	0.0852	0.124
ACTGCGG	0.012	-0.0419	-0.819	-0.646	0.0419	-0.894	0.151	-0.0489	-0.0511	-0.165
TTGTGTA	-0.0304	-0.0705	-0.203	-0.815	0.104	-0.838	-0.307	0.0308	0.0452	-0.103
TGAAGTG	0.0652	-0.119	-0.542	-0.671	-0.0979	-0.985	0.116	-0.0347	-0.141	-0.152
AGTTGAG	0.0903	-0.0785	-0.589	0.195	0.2	-0.76	0.147	0.0272	0.139	0.00365
GTTAGGT	0.0795	0.108	0.39	1.1	-0.0659	1.77	0.0253	0.074	0.0508	0.0148

— the supplement of paper PMC7826260
